Out of some 310,000 compounds screened, about 2,200 (0.71%) showed an effect of 50% or more. The effect is printed as a negative number. The list shows a part of the results.
target: human ether-à-go-go-related gene (hERG) potassium channel (human, UniProt Q12809); assay: primary screen, population patch clamp on CHO cells stably expressing hERG
Sequence (Q12809 whole entry, looked up): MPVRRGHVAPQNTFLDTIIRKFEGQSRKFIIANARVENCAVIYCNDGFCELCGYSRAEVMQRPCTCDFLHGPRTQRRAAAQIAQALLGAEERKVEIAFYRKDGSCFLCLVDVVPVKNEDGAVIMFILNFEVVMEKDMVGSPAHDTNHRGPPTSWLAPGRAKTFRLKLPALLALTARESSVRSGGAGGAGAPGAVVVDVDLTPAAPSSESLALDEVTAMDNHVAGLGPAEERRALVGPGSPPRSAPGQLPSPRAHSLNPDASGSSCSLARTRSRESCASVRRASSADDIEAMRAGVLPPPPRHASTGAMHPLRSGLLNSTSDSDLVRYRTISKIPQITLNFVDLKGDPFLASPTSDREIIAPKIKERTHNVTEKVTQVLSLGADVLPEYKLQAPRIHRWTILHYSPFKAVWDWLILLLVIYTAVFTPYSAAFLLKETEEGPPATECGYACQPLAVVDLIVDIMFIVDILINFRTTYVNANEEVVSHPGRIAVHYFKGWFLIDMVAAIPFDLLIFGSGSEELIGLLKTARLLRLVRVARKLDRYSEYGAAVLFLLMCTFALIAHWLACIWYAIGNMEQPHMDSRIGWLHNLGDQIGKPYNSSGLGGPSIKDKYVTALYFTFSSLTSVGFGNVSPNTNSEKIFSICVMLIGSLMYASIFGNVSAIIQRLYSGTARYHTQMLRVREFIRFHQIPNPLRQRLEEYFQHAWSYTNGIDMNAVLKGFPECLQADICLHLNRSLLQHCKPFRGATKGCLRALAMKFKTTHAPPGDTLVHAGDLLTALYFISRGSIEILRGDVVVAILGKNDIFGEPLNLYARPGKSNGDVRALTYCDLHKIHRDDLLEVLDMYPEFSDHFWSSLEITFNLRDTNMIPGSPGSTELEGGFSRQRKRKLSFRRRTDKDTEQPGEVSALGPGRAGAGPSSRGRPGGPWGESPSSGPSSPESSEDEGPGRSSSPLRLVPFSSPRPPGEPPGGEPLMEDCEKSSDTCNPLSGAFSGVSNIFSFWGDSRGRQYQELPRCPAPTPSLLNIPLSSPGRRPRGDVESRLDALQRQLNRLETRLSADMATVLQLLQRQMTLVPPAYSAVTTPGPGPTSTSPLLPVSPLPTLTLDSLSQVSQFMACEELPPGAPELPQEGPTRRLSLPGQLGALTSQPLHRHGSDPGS

| Structure (SMILES) | hERG current change (%, negative = inhibition) at 1uM |
| --- | --- |
| Cc1ccc(SCc2cc(=O)n(C)[nH]2)cc1 | 18.2% |
| O=C(CSc1ccc(Br)cc1)NCC(c1ccco1)N1CCCCC1 (centres unmarked) | 9.34% |
| O=C(O)C(c1ccccc1)C1(O)CCCCC1 (centres unmarked) | 18.1% |
| CC(=O)c1c(C)[nH]c(C(=O)Nc2cccc(S(=O)(=O)N3CCOCC3)c2)c1C | 7.8% |
| Cc1cc(C(F)(F)F)c(C#N)c(SCC(=O)Nc2nc3cc(Br)ccc3s2)n1 | -39.9% |
| COc1ccc(-c2cc(C(F)(F)F)n3ncc(C(=O)N4CCc5ccccc5C4)c3n2)cc1 | 11.6% |
| Cc1ccc(-c2nnc(N3CCOCC3)c3ccccc23)cc1S(=O)(=O)NCC1CCCO1 (centres unmarked) | 0.72% |
| Cc1oc(C)c(C(=O)O)c1COc1ccc(C(=O)O)cc1 | 9.47% |
| CCOC(=O)c1c(NC(=O)CSc2nnc(C)o2)sc(C)c1C | 4.1% |
| COc1cc(C)ccc1OCCOCCOc1ccc([N+](=O)[O-])cc1 | -9% |
| CCNc1nc(-c2ccc(OC(F)F)cc2)c(C)s1 | 16.7% |
| COc1ccc(C(=O)CSc2nnc(CNc3ccc(F)cc3)o2)cc1 | 13% |
| Cc1cc(NC(=O)CSc2nnnn2-c2ccc(C(C)C)cc2)no1 | 7.23% |
| O=C(O)C1CN2CCC1CC2 (centres unmarked) | -4.48% |
| C/C(=N\Nc1nc(N)cc(Cl)n1)c1ccc(Cl)c(Cl)c1 | 0.15% |
| COc1ccc(N(CC(=O)N2CCN(c3ccccc3)CC2)S(=O)(=O)c2c(C)noc2C)cc1 | -0.248% |
| COc1ccc(S(=O)(=O)N2CCC(C(=O)NCCc3c[nH]c4ccccc34)CC2)cc1 | 9.47% |
| CC(C)COC(=O)CNc1n[nH]c(=S)[nH]c1=O | 8.28% |
| COc1ccc(N/N=C2/CCCCC2=O)cc1 | 14.6% |
| O=C(O)CC(c1cccc(O)c1)N1Cc2ccccc2C1=O (centres unmarked) | 12% |
| O=C(NC1CCN(Cc2ccccc2)CC1)C1CCCN(c2nnc(-n3cccc3)s2)C1 (centres unmarked) | -65.2% |
| O=C(Nc1cccc(C(=O)N2CCCCCC2)c1)c1ccco1 | 2.11% |

| Structure (SMILES) | hERG current change (%, negative = inhibition) at 1uM |
| --- | --- |
| COc1ccc(NC(=O)CN2C(=O)NC3(CCCC3)C2=O)cc1Cl | 16.3% |
| CC(C)(C)NC(=O)C(OC(=O)Cn1nnc(-c2ccc(F)cc2)n1)c1ccncc1 (centres unmarked) | 25.2% |
| Cc1ccc2occ(/C=C/C(=O)O)c(=O)c2c1 | 9.03% |
| Cc1ccc(SCc2ccc(C(=O)NCc3cccnc3)cc2)cc1 | 15.1% |
| Cc1ccc(-c2cc(C(=O)Nc3ccc(S(=O)(=O)Nc4ncccn4)cc3)c3ccccc3n2)cc1 | -1.57% |
| CCC(Oc1ccccc1OC)C(=O)Nc1ccc2c(c1)OCCO2 (centres unmarked) | 3.64% |
| CCn1c(-c2ccc(-c3ccccc3)cc2)c[nH]c1=S | 7.11% |
| CCn1c(/C=N/Nc2ccc(C(=O)O)cc2)nc2ccccc21 | 9.47% |
| Cc1ccc(-n2[nH]c(C)c(/C=N/NC(=O)c3ccc(O)cc3O)c2=O)cc1 | 21.4% |
| CCOC(=O)C1=C(C)Nc2nc(SCC(=O)OC)nn2C1c1cc(F)cc(F)c1 (centres unmarked) | -4.97% |
| CC(=O)c1cccc(NC(=O)c2ccc3c(c2)OCO3)c1 | 14.9% |
| O=C(COC(=O)c1n[nH]c2ccccc12)Nc1ccc([N+](=O)[O-])cc1 | 11.5% |
| CCc1ccccc1NC(=O)COC(=O)c1cccs1 | 13.3% |
| Cc1cccc(OCC(=O)N2CCN(C(=O)c3cccs3)CC2)c1 | 5.43% |
| O=C(O)c1ccccc1-c1ccc(C=C2C(=O)N(c3ccccc3)C(=S)N(c3ccccc3)C2=O)o1 | 11.6% |
| O=c1c2ccccc2oc2ncccc12 | -3.22% |
| COC(=O)CCCC1=CC2=C(c3ccccc3)C(=O)C(C)(OC(=O)C3CCCC3)C(=O)C2=CN1CCc1ccccn1 (centres unmarked) | 8.76% |
| CCCSc1nc(C)c(CC(=O)OCC)c(=O)[nH]1 | -3.2% |
| CS(=O)(=O)N1CCN(C2Cc3ccccc3C2)CC1.O=C(O)C(=O)O | 5.22% |
| CCCn1c(N)cc(=O)n(C)c1=O | 14.3% |
| CN1CCN(c2nc3c(c(=O)[nH]c(=O)n3C)n2Cc2cccc3ccccc23)CC1 | 2.76% |
| O=C(CCCN1C(=O)/C(=C\c2cccs2)SC1=S)Nc1cccc(C(=O)O)c1 | 5.52% |

Source: paper PMC4336329 (PLoS ONE, 2015)
